40 sequences from PMC12820563, “FoxP3 forms a head-to-head dimer in vivo and stabilizes its multimerization on adjacent microsatellites” can be followed below.

The list shows a part of the results.

For this assay, the target named is T1, MBP-FoxP1dN (Mus musculus, UniProt P58462 326-579).
T1 sequence: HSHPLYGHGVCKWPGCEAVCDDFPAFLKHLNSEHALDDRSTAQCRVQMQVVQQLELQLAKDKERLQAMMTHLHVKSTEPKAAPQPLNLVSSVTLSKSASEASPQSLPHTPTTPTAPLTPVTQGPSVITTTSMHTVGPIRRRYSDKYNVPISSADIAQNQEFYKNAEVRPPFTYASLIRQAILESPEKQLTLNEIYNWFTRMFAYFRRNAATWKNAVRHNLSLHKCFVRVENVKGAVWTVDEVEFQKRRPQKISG
In words: PD-seq (MBP pull-down with sequencing); 20 mM Tris-HCl pH 7.5, 100 mM NaCl, 1.5 mM MgCl2, 0.4 uM protein, 0.1 uM dsDNA library, 30 min, room temperature, amylose pull-down; high values mean tight binding. To be noted: protein: recombinant; tags: His6-MBP; chain copies: 2; dsDNA, one strand shown. The procedure, abridged: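 A fragment of mouse FoxP3 or FoxP1 without its N-terminus, carrying a His6-MBP tag and produced in E. coli, was combined at 0.4 µM with a 0.1 µM degenerate double-stranded DNA library filled in with Klenow. The mixture sat for 30 min at room temperature in Tris pH 7.5 buffer containing NaCl and MgCl2. Protein–DNA complexes were captured on amylose resin, washed three times, and the DNA was freed with proteinase K, barcoded by PCR and sequenced on Illumina. Binding is expressed as reads-per-million enrichment of pull-down over input, with replicates pooled.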
Consider “GATGATTGTTCTCCCAGCTGATGAATTTTACTAGTCGAGTAAACAAATTTTCCTAATCTTTCTGTTCAAGCGCCATCTAC”, for which the binding signal was 0.835 RPM ratio (pull-down/input). For “GATGATTGTTCTCCCAGCTGATGAATTTTGATCCTCGAGTAAACAAATTTTCCTAATCTTTCTGTTCAAGCGCCATCTAC” the value was 0.883 RPM ratio (pull-down/input); for “GATGATTGTTCTCCCAGCTGATGAATTCGTCATTTCGAGTAAACAAATTTTCCTAATCTTTCTGTTCAAGCGCCATCTAC”, 0.896 RPM ratio (pull-down/input). Consider “GATGATTGTTCTCCCAGCTGATGAATTTCGCGCGTCGAGTAAACAAATTTTCCTAATCTTTCTGTTCAAGCGCCATCTAC”, for which the binding signal was 0.972 RPM ratio (pull-down/input). Consider “GATGATTGTTCTCCCAGCTGATGAATTTCTCGAGTCGAGTAAACAAATTTTCCTAATCTTTCTGTTCAAGCGCCATCTAC”, for which the binding signal was 0.839 RPM ratio (pull-down/input).

As for “GATGATTGTTCTCCCAGCTGATGAATTCAGCCGGTCGAGTAAACAAATTTTCCTAATCTTTCTGTTCAAGCGCCATCTAC”, the binding signal was 0.799 RPM ratio (pull-down/input). As for “GATGATTGTTCTCCCAGCTGATGAATTCTCCATTTCGAGTAAACAAATTTTCCTAATCTTTCTGTTCAAGCGCCATCTAC”, the binding signal was 0.871 RPM ratio (pull-down/input).

For “GATGATTGTTCTCCCAGCTGATGAATTCTGCTGTTCGAGTAAACAAATTTTCCTAATCTTTCTGTTCAAGCGCCATCTAC”, the binding signal is 1.23 RPM ratio (pull-down/input). For “GATGATTGTTCTCCCAGCTGATGAATTAACCTAGTCGAGTAAACAAATTTTCCTAATCTTTCTGTTCAAGCGCCATCTAC” the value was 0.815 RPM ratio (pull-down/input).

As for “GATGATTGTTCTCCCAGCTGATGAATTTGGATCCTCGAGTAAACAAATTTTCCTAATCTTTCTGTTCAAGCGCCATCTAC”, the binding signal is 0.802 RPM ratio (pull-down/input). For “GATGATTGTTCTCCCAGCTGATGAATTGGTAGTATCGAGTAAACAAATTTTCCTAATCTTTCTGTTCAAGCGCCATCTAC”, the binding signal is 1.09 RPM ratio (pull-down/input). Consider “GATGATTGTTCTCCCAGCTGATGAATTTCGCACGTCGAGTAAACAAATTTTCCTAATCTTTCTGTTCAAGCGCCATCTAC”, for which the binding signal is 0.876 RPM ratio (pull-down/input). Regarding “GATGATTGTTCTCCCAGCTGATGAATTCGGTAATTCGAGTAAACAAATTTTCCTAATCTTTCTGTTCAAGCGCCATCTAC”, the binding signal was 0.995 RPM ratio (pull-down/input). For “GATGATTGTTCTCCCAGCTGATGAATTCGAAGGGTCGAGTAAACAAATTTTCCTAATCTTTCTGTTCAAGCGCCATCTAC” the value was 0.726 RPM ratio (pull-down/input); for “GATGATTGTTCTCCCAGCTGATGAATTCACTGGTTCGAGTAAACAAATTTTCCTAATCTTTCTGTTCAAGCGCCATCTAC”, 0.869 RPM ratio (pull-down/input); for “GATGATTGTTCTCCCAGCTGATGAATTGCGGTCATCGAGTAAACAAATTTTCCTAATCTTTCTGTTCAAGCGCCATCTAC”, 1.05 RPM ratio (pull-down/input). Consider “GATGATTGTTCTCCCAGCTGATGAATTGGATACGTCGAGTAAACAAATTTTCCTAATCTTTCTGTTCAAGCGCCATCTAC”, for which the binding signal is 0.991 RPM ratio (pull-down/input). For “GATGATTGTTCTCCCAGCTGATGAATTATGAGGCTCGAGTAAACAAATTTTCCTAATCTTTCTGTTCAAGCGCCATCTAC” the value was 0.93 RPM ratio (pull-down/input); for “GATGATTGTTCTCCCAGCTGATGAATTACTGAACTCGAGTAAACAAATTTTCCTAATCTTTCTGTTCAAGCGCCATCTAC”, 0.945 RPM ratio (pull-down/input); for “GATGATTGTTCTCCCAGCTGATGAATTGTACCTTTCGAGTAAACAAATTTTCCTAATCTTTCTGTTCAAGCGCCATCTAC”, 0.954 RPM ratio (pull-down/input). For “GATGATTGTTCTCCCAGCTGATGAATTTAGAGATTCGAGTAAACAAATTTTCCTAATCTTTCTGTTCAAGCGCCATCTAC”, the binding signal was 0.992 RPM ratio (pull-down/input).

Take “GATGATTGTTCTCCCAGCTGATGAATTGGTCGGTTCGAGTAAACAAATTTTCCTAATCTTTCTGTTCAAGCGCCATCTAC”: the binding signal was 0.899 RPM ratio (pull-down/input).

For “GATGATTGTTCTCCCAGCTGATGAATTTGTGGACTCGAGTAAACAAATTTTCCTAATCTTTCTGTTCAAGCGCCATCTAC”, the binding signal was 0.984 RPM ratio (pull-down/input). For “GATGATTGTTCTCCCAGCTGATGAATTATGGAGGTCGAGTAAACAAATTTTCCTAATCTTTCTGTTCAAGCGCCATCTAC” the value was 0.896 RPM ratio (pull-down/input); for “GATGATTGTTCTCCCAGCTGATGAATTCCCGACGTCGAGTAAACAAATTTTCCTAATCTTTCTGTTCAAGCGCCATCTAC”, 0.802 RPM ratio (pull-down/input); for “GATGATTGTTCTCCCAGCTGATGAATTCCGCATATCGAGTAAACAAATTTTCCTAATCTTTCTGTTCAAGCGCCATCTAC”, 0.854 RPM ratio (pull-down/input). For “GATGATTGTTCTCCCAGCTGATGAATTTTGAAGGTCGAGTAAACAAATTTTCCTAATCTTTCTGTTCAAGCGCCATCTAC” the value was 0.88 RPM ratio (pull-down/input); for “GATGATTGTTCTCCCAGCTGATGAATTTAGGGGTTCGAGTAAACAAATTTTCCTAATCTTTCTGTTCAAGCGCCATCTAC”, 0.92 RPM ratio (pull-down/input); for “GATGATTGTTCTCCCAGCTGATGAATTTTCTCGATCGAGTAAACAAATTTTCCTAATCTTTCTGTTCAAGCGCCATCTAC”, 0.967 RPM ratio (pull-down/input). For “GATGATTGTTCTCCCAGCTGATGAATTGCCAGGGTCGAGTAAACAAATTTTCCTAATCTTTCTGTTCAAGCGCCATCTAC” the value was 0.818 RPM ratio (pull-down/input). For the sequence “GATGATTGTTCTCCCAGCTGATGAATTTCCTTCGTCGAGTAAACAAATTTTCCTAATCTTTCTGTTCAAGCGCCATCTAC”, the binding signal was 0.851 RPM ratio (pull-down/input). Regarding “GATGATTGTTCTCCCAGCTGATGAATTCGCGGACTCGAGTAAACAAATTTTCCTAATCTTTCTGTTCAAGCGCCATCTAC”, the binding signal was 0.757 RPM ratio (pull-down/input).

For the sequence “GATGATTGTTCTCCCAGCTGATGAATTCCCTTGCTCGAGTAAACAAATTTTCCTAATCTTTCTGTTCAAGCGCCATCTAC”, the binding signal was 0.789 RPM ratio (pull-down/input). Turning to “GATGATTGTTCTCCCAGCTGATGAATTCAGAAAATCGAGTAAACAAATTTTCCTAATCTTTCTGTTCAAGCGCCATCTAC”, the binding signal was 0.977 RPM ratio (pull-down/input). “GATGATTGTTCTCCCAGCTGATGAATTAAAACTCTCGAGTAAACAAATTTTCCTAATCTTTCTGTTCAAGCGCCATCTAC”: the binding signal is 0.854 RPM ratio (pull-down/input). For “GATGATTGTTCTCCCAGCTGATGAATTCCATTTATCGAGTAAACAAATTTTCCTAATCTTTCTGTTCAAGCGCCATCTAC” the value was 1.13 RPM ratio (pull-down/input); for “GATGATTGTTCTCCCAGCTGATGAATTTGCCGCCTCGAGTAAACAAATTTTCCTAATCTTTCTGTTCAAGCGCCATCTAC”, 0.901 RPM ratio (pull-down/input).

Take “GATGATTGTTCTCCCAGCTGATGAATTCCACACATCGAGTAAACAAATTTTCCTAATCTTTCTGTTCAAGCGCCATCTAC”: the binding signal was 1.06 RPM ratio (pull-down/input). For “GATGATTGTTCTCCCAGCTGATGAATTATGAGCTTCGAGTAAACAAATTTTCCTAATCTTTCTGTTCAAGCGCCATCTAC” the value was 0.932 RPM ratio (pull-down/input); for “GATGATTGTTCTCCCAGCTGATGAATTGCAAAATTCGAGTAAACAAATTTTCCTAATCTTTCTGTTCAAGCGCCATCTAC”, 1.43 RPM ratio (pull-down/input).
